# Source: the supplement of paper PMC8728848
# The other results are listed elsewhere or left out.
# B1: MGL6A (Homo sapiens) (protein)
# chain: MTRTYENFQYLENKVKVQGFKNGPLPLQSLLQRLCSGPCHLLLSLGLGLLLLVIICVVGFQNSKFQRDLVTLRTDFSNFTSNTVAEIQALTSQGSSLEETIASLKAEVEGFKQERQAVHSEMLLRVQQLVQDLKKLTCQVATLNNNGEEASTEGTCCPVNWVEHQDSCYWFSHSGMSWAEAEKYCQLKNAHLVVINSREEQNFVQKYLGSAYTWMGLSDPEGAWKWVDGTDYATGFQNWKPGQPDDWQGHGLGGGEDCAHFTPDGRWNDDVCQRPYHWVCEAGLGQTSQESH
# Tests used:
# Assay in all cases: glycan array binding signal (z-score within array); higher = stronger binding
# Conditions in all cases: glycan notation: IUPAC condensed, linker removed; mutation: H262T
# Fuc(a1-2)Gal = target: Fuc(a1-2)Gal
# Outline: (§1)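 Glycan array binding is given as a within-array Z-score, which can be read as non-binding when negative. The arrays, 3228 of them, came from the Consortium for Functional Glycomics database and were retained only where the protein sequence was available. Z-scores were averaged across arrays of the same protein sequence at different concentrations or buffers and across linkers.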
# Fuc(a1-2)Gal(b1-3)GalNAc = target: Fuc(a1-2)Gal(b1-3)GalNAc
# Outline: as §1
# [1] = target: Fuc(a1-2)Gal(b1-3)GalNAc(a1-3)[Fuc(a1-2)]Gal(b1-4)Glc
# Outline: as §1
# [2] = target: Fuc(a1-2)Gal(b1-3)GalNAc(a1-3)[Fuc(a1-2)]Gal(b1-4)GlcNAc
# Outline: as §1
# [3] = target: Fuc(a1-2)Gal(b1-3)GalNAc(b1-3)Gal
# Outline: as §1
# [4] = target: Fuc(a1-2)Gal(b1-3)GalNAc(b1-3)Gal(a1-4)Gal(b1-4)Glc
# Outline: as §1
# [5] = target: Fuc(a1-2)Gal(b1-3)GalNAc(b1-4)[Neu5Ac(a2-3)]Gal(b1-4)Glc
# Outline: as §1
# Fuc(a1-2)Gal(b1-3)GlcNAc = target: Fuc(a1-2)Gal(b1-3)GlcNAc
# Outline: as §1
# [6] = target: Fuc(a1-2)Gal(b1-3)GlcNAc(b1-2)Man(a1-3)[Fuc(a1-2)Gal(b1-3)GlcNAc(b1-2)Man(a1-6)]Man(b1-4)GlcNAc(b1-4)GlcNAc
# Outline: as §1
# [7] = target: Fuc(a1-2)Gal(b1-3)GlcNAc(b1-2)Man(a1-3)[Fuc(a1-2)Gal(b1-3)GlcNAc(b1-2)Man(a1-6)]Man(b1-4)GlcNAc(b1-4)[Fuc(a1-6)]GlcNAc
# Outline: as §1
# [8] = target: Fuc(a1-2)Gal(b1-3)GlcNAc(b1-3)Gal(b1-4)Glc
# Outline: as §1
# [9] = target: Fuc(a1-2)Gal(b1-3)GlcNAc(b1-3)GalNAc
# Outline: as §1
# [10] = target: Fuc(a1-2)Gal(b1-3)GlcNAc(b1-3)[Fuc(a1-2)Gal(b1-3)GlcNAc(b1-6)]GalNAc
# Outline: as §1
# [11] = target: Fuc(a1-2)Gal(b1-3)GlcNAc(b1-3)[Gal(b1-4)GlcNAc(b1-6)]Gal(b1-4)Glc
# Outline: as §1
# [12] = target: Fuc(a1-2)Gal(b1-3)GlcNAc(b1-3)[Neu5Ac(a2-6)Gal(b1-4)GlcNAc(b1-6)]Gal(b1-4)Glc
# Outline: as §1
# [13] = target: Fuc(a1-2)Gal(b1-3)GlcNAc6S
# Outline: as §1
# [14] = target: Fuc(a1-2)Gal(b1-3)[Fuc(a1-4)]GlcNAc
# Outline: as §1
# [15] = target: Fuc(a1-2)Gal(b1-3)[Fuc(a1-4)]GlcNAc(b1-2)Man(a1-3)[Fuc(a1-2)Gal(b1-3)[Fuc(a1-4)]GlcNAc(b1-2)Man(a1-3)]Man(b1-4)GlcNAc(b1-4)GlcNAc
# Outline: as §1
# [16] = target: Fuc(a1-2)Gal(b1-3)[Fuc(a1-4)]GlcNAc(b1-2)Man(a1-3)[Fuc(a1-2)Gal(b1-3)[Fuc(a1-4)]GlcNAc(b1-2)Man(a1-6)]Man(b1-4)GlcNAc(b1-4)[Fuc(a1-6)]GlcNAc(b1-4)[Fuc(a1-6)]GlcNAc
# Outline: as §1
# [17] = target: Fuc(a1-2)Gal(b1-3)[Fuc(a1-4)]GlcNAc(b1-3)[Fuc(a1-3)[Gal(b1-4)]GlcNAc(b1-6)]Gal(b1-4)Glc
# Outline: as §1
# [18] = target: Fuc(a1-2)Gal(b1-3)[Fuc(a1-4)]GlcNAc(b1-3)[Gal(b1-4)GlcNAc(b1-6)]Gal(b1-4)Glc
# Outline: as §1
# [19] = target: Fuc(a1-2)Gal(b1-4)Fuc(a1-3)]GlcNAc(b1-2)Man(a1-3)[Fuc(a1-2)Gal(b1-4)[Fuc(a1-3)]GlcNAc(b1-2)Man(a1-6)]Man(b1-4)GlcNAc(b1-4)GlcNAc
# Outline: as §1
# Fuc(a1-2)Gal(b1-4)Glc = target: Fuc(a1-2)Gal(b1-4)Glc
# Outline: as §1
# Fuc(a1-2)Gal(b1-4)Glc6S = target: Fuc(a1-2)Gal(b1-4)Glc6S
# Outline: as §1
# Fuc(a1-2)Gal(b1-4)GlcNAc = target: Fuc(a1-2)Gal(b1-4)GlcNAc
# Outline: as §1
# [20] = target: Fuc(a1-2)Gal(b1-4)GlcNAc(b1-2)Man
# Outline: as §1
# [21] = target: Fuc(a1-2)Gal(b1-4)GlcNAc(b1-2)Man(a1-3)[Fuc(a1-2)Gal(b1-4)GlcNAc(b1-2)Man(a1-6)]Man(b1-4)GlcNAc(b1-4)GlcNAc
# Outline: as §1
# [22] = target: Fuc(a1-2)Gal(b1-4)GlcNAc(b1-2)Man(a1-3)[Fuc(a1-2)Gal(b1-4)GlcNAc(b1-2)Man(a1-6)]Man(b1-4)GlcNAc(b1-4)[Fuc(a1-6)]GlcNAc
# Outline: as §1
# [23] = target: Fuc(a1-2)Gal(b1-4)GlcNAc(b1-2)[Fuc(a1-2)Gal(b1-4)GlcNAc(b1-4)]Man(a1-3)[Fuc(a1-2)Gal(b1-4)GlcNAc(b1-2)Man(a1-6)]Man(b1-4)GlcNAc(b1-4)GlcNAc
# Outline: as §1
# [24] = target: Fuc(a1-2)Gal(b1-4)GlcNAc(b1-3)Gal(b1-4)GlcNAc
# Outline: as §1
binder,measurement,setting,value
B1,glycan array binding signal (z-score),Fuc(a1-2)Gal,-0.173
same,glycan array binding signal (z-score),Fuc(a1-2)Gal(b1-3)GalNAc,-0.175
same,glycan array binding signal (z-score),[1],-0.173
same,glycan array binding signal (z-score),[2],-0.171
same,glycan array binding signal (z-score),[3],-0.173
same,glycan array binding signal (z-score),[4],-0.179
same,glycan array binding signal (z-score),[5],-0.173
same,glycan array binding signal (z-score),Fuc(a1-2)Gal(b1-3)GlcNAc,-0.17
same,glycan array binding signal (z-score),[6],-0.148
same,glycan array binding signal (z-score),[7],-0.165
same,glycan array binding signal (z-score),[8],-0.169
same,glycan array binding signal (z-score),[9],-0.173
same,glycan array binding signal (z-score),[10],-0.167
same,glycan array binding signal (z-score),[11],-0.175
same,glycan array binding signal (z-score),[12],-0.174
same,glycan array binding signal (z-score),[13],-0.156
same,glycan array binding signal (z-score),[14],-0.175
same,glycan array binding signal (z-score),[15],-0.166
same,glycan array binding signal (z-score),[16],-0.174
same,glycan array binding signal (z-score),[17],-0.176
same,glycan array binding signal (z-score),[18],-0.175
same,glycan array binding signal (z-score),[19],-0.162
same,glycan array binding signal (z-score),Fuc(a1-2)Gal(b1-4)Glc,-0.176
same,glycan array binding signal (z-score),Fuc(a1-2)Gal(b1-4)Glc6S,-0.168
same,glycan array binding signal (z-score),Fuc(a1-2)Gal(b1-4)GlcNAc,-0.174
same,glycan array binding signal (z-score),[20],-0.178
same,glycan array binding signal (z-score),[21],-0.167
same,glycan array binding signal (z-score),[22],-0.161
same,glycan array binding signal (z-score),[23],-0.185
same,glycan array binding signal (z-score),[24],-0.176
